# The supplement of paper PMC8728848
# This is one part of the list.
# Tests used:
# Assay in all cases: glycan array binding signal (z-score within array); higher = stronger binding
# Conditions in all cases: glycan notation: IUPAC condensed, linker removed
# [1] = target: GlcNAc(b1-2)Gal(b1-3)GalNAc
# Method in brief: (§1)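 The binding signal is a Z-score computed within each array. Data were drawn from 3228 arrays in the Consortium for Functional Glycomics database, restricted to those with a known protein sequence. Scores were averaged over arrays of the same protein sequence at different concentrations or buffers, and over linkers, and negative values can be taken as non-binding.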
# [2] = target: GlcNAc(b1-2)Man(a1-3)[GlcNAc(b1-2)Man(a1-6)]Man(b1-4)GlcNAc(b1-4)GlcNAc
# Method in brief: as §1
# [3] = target: GlcNAc(b1-2)Man(a1-3)[GlcNAc(b1-2)Man(a1-6)]Man(b1-4)GlcNAc(b1-4)[Fuc(a1-6)]GlcNAc
# Method in brief: as §1
# [4] = target: GlcNAc(b1-2)Man(a1-3)[GlcNAc(b1-4)][GlcNAc(b1-2)Man(a1-6)]Man(b1-4)GlcNAc(b1-4)GlcNAc
# Method in brief: as §1
# [5] = target: GlcNAc(b1-2)Man(a1-3)[GlcNAc(b1-4)][GlcNAc(b1-2)Man(a1-6)]Man(b1-4)GlcNAc(b1-4)[Fuc(a1-6)]GlcNAc
# Method in brief: as §1
# [6] = target: GlcNAc(b1-2)[GlcNAc(b1-4)]Man(a1-3)[GlcNAc(b1-2)Man(a1-6)]Man(b1-4)GlcNAc(b1-4)GlcNAc
# Method in brief: as §1
# [7] = target: GlcNAc(b1-2)[GlcNAc(b1-4)]Man(a1-3)[GlcNAc(b1-4)][GlcNAc(b1-2)Man(a1-6)]Man(b1-4)GlcNAc(b1-4)GlcNAc
# Method in brief: as §1
# [8] = target: GlcNAc(b1-2)[GlcNAc(b1-4)]Man(a1-3)[GlcNAc(b1-4)][GlcNAc(b1-2)[GlcNAc(b1-6)]Man(a1-6)]Man(b1-4)GlcNAc(b1-4)GlcNAc
# Method in brief: as §1
# [9] = target: GlcNAc(b1-2)[GlcNAc(b1-4)]Man(a1-3)[GlcNAc(b1-4)][GlcNAc(b1-2)[GlcNAc(b1-6)]Man(a1-6)]Man(b1-4)GlcNAc(b1-4)[Fuc(a1-6)]GlcNAc
# Method in brief: as §1
# [10] = target: GlcNAc(b1-2)[GlcNAc(b1-6)]Man(a1-6)[GlcNAc(b1-2)Man(a1-3)]Man(b1-4)GlcNAc(b1-4)GlcNAc
# Method in brief: as §1
# [11] = target: GlcNAc(b1-2)[GlcNAc(b1-6)]Man(a1-6)[GlcNAc(b1-2)Man(a1-3)]Man(b1-4)GlcNAc(b1-4)[Fuc(a1-6)]GlcNAc
# Method in brief: as §1
# [12] = target: GlcNAc(b1-2)[GlcNAc(b1-6)]Man(a1-6)[GlcNAc(b1-4)][GlcNAc(b1-2)Man(a1-3)]Man(b1-4)GlcNAc(b1-4)GlcNAc
# Method in brief: as §1
# GlcNAc(b1-3)Fuc = target: GlcNAc(b1-3)Fuc
# Method in brief: as §1
# GlcNAc(b1-3)Gal = target: GlcNAc(b1-3)Gal
# Method in brief: as §1
# [13] = target: GlcNAc(b1-3)Gal(b1-3)GalNAc
# Method in brief: as §1
# GlcNAc(b1-3)Gal(b1-4)Glc = target: GlcNAc(b1-3)Gal(b1-4)Glc
# Method in brief: as §1
# [14] = target: GlcNAc(b1-3)Gal(b1-4)GlcNAc
# Method in brief: as §1
# [15] = target: GlcNAc(b1-3)Gal(b1-4)GlcNAc(b1-2)Man(a1-3)[GlcNAc(b1-3)Gal(b1-4)GlcNAc(b1-2)Man(a1-6)]Man(b1-4)GlcNAc(b1-4)GlcNAc
# Method in brief: as §1
# [16] = target: GlcNAc(b1-3)Gal(b1-4)GlcNAc(b1-2)Man(a1-3)[GlcNAc(b1-3)Gal(b1-4)GlcNAc(b1-2)Man(a1-6)]Man(b1-4)GlcNAc(b1-4)[Fuc(a1-6)]GlcNAc
# Method in brief: as §1
# [17] = target: GlcNAc(b1-3)Gal(b1-4)GlcNAc(b1-2)[GlcNAc(b1-3)Gal(b1-4)GlcNAc(b1-6)]Man(a1-6)[GlcNAc(b1-3)Gal(b1-4)GlcNAc(b1-2)Man(a1-3)]Man(b1-4)GlcNAc(b1-4)GlcNAc
# Method in brief: as §1
# [18] = target: GlcNAc(b1-3)Gal(b1-4)GlcNAc(b1-3)Gal(b1-4)GlcNAc
# Method in brief: as §1
# [19] = target: GlcNAc(b1-3)Gal(b1-4)GlcNAc(b1-3)Gal(b1-4)GlcNAc(b1-2)Man(a1-3)[GlcNAc(b1-3)Gal(b1-4)GlcNAc(b1-3)Gal(b1-4)GlcNAc(b1-2)Man(a1-6)]Man(b1-4)GlcNAc(b1-4)GlcNAc
# Method in brief: as §1
# [20] = target: GlcNAc(b1-3)Gal(b1-4)GlcNAc(b1-3)Gal(b1-4)GlcNAc(b1-2)Man(a1-3)[GlcNAc(b1-3)Gal(b1-4)GlcNAc(b1-3)Gal(b1-4)GlcNAc(b1-2)Man(a1-6)]Man(b1-4)GlcNAc(b1-4)[Fuc(a1-6)]GlcNAc
# Method in brief: as §1
# [21] = target: GlcNAc(b1-3)Gal(b1-4)GlcNAc(b1-3)Gal(b1-4)GlcNAc(b1-2)[GlcNAc(b1-3)Gal(b1-4)GlcNAc(b1-3)Gal(b1-4)GlcNAc(b1-6)]Man(a1-6)[GlcNAc(b1-3)Gal(b1-4)GlcNAc(b1-3)Gal(b1-4)GlcNAc(b1-2)Man(a1-3)]Man(b1-4)GlcNAc(b1-4)[Fuc(a1-6)]GlcNAc
# Method in brief: as §1
# [22] = target: GlcNAc(b1-3)Gal(b1-4)GlcNAc(b1-3)Gal(b1-4)GlcNAc(b1-3)Gal(b1-4)GlcNAc(b1-2)Man(a1-3)[GlcNAc(b1-3)Gal(b1-4)GlcNAc(b1-3)Gal(b1-4)GlcNAc(b1-3)Gal(b1-4)GlcNAc(b1-2)Man(a1-6)]Man(b1-4)GlcNAc(b1-4)GlcNAc
# Method in brief: as §1
# [23] = target: GlcNAc(b1-3)Gal(b1-4)GlcNAc(b1-3)Gal(b1-4)GlcNAc(b1-3)Gal(b1-4)GlcNAc(b1-2)Man(a1-3)[GlcNAc(b1-3)Gal(b1-4)GlcNAc(b1-3)Gal(b1-4)GlcNAc(b1-3)Gal(b1-4)GlcNAc(b1-2)Man(a1-6)]Man(b1-4)GlcNAc(b1-4)[Fuc(a1-6)]GlcNAc
# Method in brief: as §1
# [24] = target: GlcNAc(b1-3)Gal(b1-4)GlcNAc(b1-3)Gal(b1-4)GlcNAc(b1-3)Gal(b1-4)GlcNAc(b1-2)[GlcNAc(b1-3)Gal(b1-4)GlcNAc(b1-3)Gal(b1-4)GlcNAc(b1-3)Gal(b1-4)GlcNAc(b1-6)]Man(a1-6)[GlcNAc(b1-3)Gal(b1-4)GlcNAc(b1-3)Gal(b1-4)GlcNAc(b1-3)Gal(b1-4)GlcNAc(b1-2)Man(a1-3)]Man(b1-4)GlcNAc(b1-4)[Fuc(a1-6)]GlcNAc
# Method in brief: as §1
# [25] = target: GlcNAc(b1-3)Gal(b1-4)GlcNAc(b1-3)Gal(b1-4)GlcNAc(b1-3)Gal(b1-4)GlcNAc(b1-3)Gal(b1-4)GlcNAc(b1-2)Man(a1-3)[GlcNAc(b1-3)Gal(b1-4)GlcNAc(b1-3)Gal(b1-4)GlcNAc(b1-3)Gal(b1-4)GlcNAc(b1-3)Gal(b1-4)GlcNAc(b1-2)Man(a1-6)]Man(b1-4)GlcNAc(b1-4)GlcNAc
# Method in brief: as §1
# [26] = target: GlcNAc(b1-3)Gal(b1-4)GlcNAc(b1-3)Gal(b1-4)GlcNAc(b1-3)Gal(b1-4)GlcNAc(b1-3)Gal(b1-4)GlcNAc(b1-2)Man(a1-3)[GlcNAc(b1-3)Gal(b1-4)GlcNAc(b1-3)Gal(b1-4)GlcNAc(b1-3)Gal(b1-4)GlcNAc(b1-3)Gal(b1-4)GlcNAc(b1-2)Man(a1-6)]Man(b1-4)GlcNAc(b1-4)[Fuc(a1-6)]GlcNAc
# Method in brief: as §1
# [27] = target: GlcNAc(b1-3)Gal(b1-4)GlcNAc(b1-3)Gal(b1-4)GlcNAc(b1-3)Gal(b1-4)GlcNAc(b1-3)Gal(b1-4)GlcNAc(b1-2)[GlcNAc(b1-3)Gal(b1-4)GlcNAc(b1-3)Gal(b1-4)GlcNAc(b1-3)Gal(b1-4)GlcNAc(b1-3)Gal(b1-4)GlcNAc(b1-6)]Man(a1-6)[GlcNAc(b1-3)Gal(b1-4)GlcNAc(b1-3)Gal(b1-4)GlcNAc(b1-3)Gal(b1-4)GlcNAc(b1-3)Gal(b1-4)GlcNAc(b1-2)Man(a1-3)]Man(b1-4)GlcNAc(b1-4)[Fuc(a1-6)]GlcNAc
# Method in brief: as §1
# [28] = target: GlcNAc(b1-3)Gal(b1-4)GlcNAc(b1-3)Gal(b1-4)GlcNAc(b1-3)GalNAc
# Method in brief: as §1
# [29] = target: GlcNAc(b1-3)Gal(b1-4)GlcNAc(b1-3)GalNAc
# Method in brief: as §1
# [30] = target: GlcNAc(b1-3)Gal(b1-4)GlcNAc(b1-3)[GlcNAc(b1-3)Gal(b1-4)GlcNAc(b1-3)]GalNAc
# Method in brief: as §1
# [31] = target: GlcNAc(b1-3)Gal(b1-4)GlcNAc(b1-6)[Gal(b1-3)]GalNAc
# Method in brief: as §1
# [32] = target: GlcNAc(b1-3)Gal(b1-4)GlcNAc(b1-6)[GlcNAc(b1-3)Gal(b1-3)]GalNAc
# Method in brief: as §1
# [33] = target: GlcNAc(b1-3)Gal(b1-4)GlcNAc(b1-6)[GlcNAc(b1-3)]Gal(b1-4)GlcNAc
# Method in brief: as §1
# GlcNAc(b1-3)GalNAc = target: GlcNAc(b1-3)GalNAc
# Method in brief: as §1
binder,measurement,setting,value
GSL-I-B4 (Griffonia simplicifolia) (protein) NFWSDVEDSIIFQGDANTTAGTLQLCKTNQYGTPLQWSAGRALYSDPVQLWDNKTESVASFYTEFTFFLKITGNGPADGLAFFLAPPDSDVKDAGEYLGLFNKSTATQPSKNQVVAVEFDTWTNPNFPEPSYRHIGINVNSIVSVATKRWEDSDIFSGKIATARISYDGSAEILTVVLSYPDGSDYILSHSVDMRQNLPESVRVGISASTGNNQFLTVYILSWRFSSNLQSTSVKAAMEPEITRTVV,glycan array binding signal (z-score),[1],-0.186
same,glycan array binding signal (z-score),[2],-0.199
same,glycan array binding signal (z-score),[3],-0.143
same,glycan array binding signal (z-score),[4],-0.176
same,glycan array binding signal (z-score),[5],-0.196
same,glycan array binding signal (z-score),[6],-0.028
same,glycan array binding signal (z-score),[7],-0.108
same,glycan array binding signal (z-score),[8],-0.089
same,glycan array binding signal (z-score),[9],-0.062
same,glycan array binding signal (z-score),[10],-0.168
same,glycan array binding signal (z-score),[11],-0.126
same,glycan array binding signal (z-score),[12],-0.218
same,glycan array binding signal (z-score),GlcNAc(b1-3)Fuc,-0.142
same,glycan array binding signal (z-score),GlcNAc(b1-3)Gal,-0.158
same,glycan array binding signal (z-score),[13],-0.143
same,glycan array binding signal (z-score),GlcNAc(b1-3)Gal(b1-4)Glc,-0.18
same,glycan array binding signal (z-score),[14],-0.186
same,glycan array binding signal (z-score),[15],-0.09
same,glycan array binding signal (z-score),[16],-0.123
same,glycan array binding signal (z-score),[17],0.075
same,glycan array binding signal (z-score),[18],-0.172
same,glycan array binding signal (z-score),[19],0.066
same,glycan array binding signal (z-score),[20],0.013
same,glycan array binding signal (z-score),[21],0.099
same,glycan array binding signal (z-score),[22],0
same,glycan array binding signal (z-score),[23],-0.006
same,glycan array binding signal (z-score),[24],0.099
same,glycan array binding signal (z-score),[25],0.145
same,glycan array binding signal (z-score),[26],0.112
same,glycan array binding signal (z-score),[27],0.207
same,glycan array binding signal (z-score),[28],-0.168
same,glycan array binding signal (z-score),[29],-0.208
same,glycan array binding signal (z-score),[30],-0.174
same,glycan array binding signal (z-score),[31],-0.161
same,glycan array binding signal (z-score),[32],-0.149
same,glycan array binding signal (z-score),[33],-0.152
same,glycan array binding signal (z-score),GlcNAc(b1-3)GalNAc,-0.17
